According to the supplement of paper PMC12217912:
The other results are listed elsewhere or left out. Sequences were assembled here from the parent chain. Values near 0.05 are background.

B1: TEV protease; numbered along this chain (parent)
chain: MGESLFKGPRDYNPISSSICHLTNESDGHTTSLYGIGFGPFIITNKHLFRRNNGTLVVQSLHGVFKVKDTTTLQQHLVDGRDMIIIRMPKDFPPFPQKLKFREPQREERICLVTTNFQTKSMSSMVSDTSCTFPSGDGIFWKHWIQTKDGQCGSPLVSTRDGFIVGIHSASNFTNTNNYFTSVPKNFMELLTNQEAQQWVSGWRLNADSVLWGGHKVFMVKPEEPFQPVKEATQL

Variants of: B1
Experiment: raw area under fraction-flipped curve 0-4 h after induction (AUC4h, not background-subtracted), DNA-recorder readout of cleavage of the substrate (dimensionless); higher = more cleavage of the substrate by the protease variant
Conditions: temperature: 34 °C; time window: 0-4 h after rhamnose induction
Method: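 In vivo DNA recorder in E. coli TOP10(DE3) ΔrhaA at 34 °C. Each TEVp single-site mutant (parent TEVp 0) is paired with a single-site variant of the 7-mer TEVs (canonical ENLYFQ|S). The substrate sits between flexible linkers in a Bxb1-sfGFP-TEVs-SsrA fusion, so cleavage stabilises Bxb1 and speeds flipping of a recombination array, read by NGS. The value is the raw area under the fraction-flipped curve over 0-4 h after rhamnose induction (AUC4h), with ≥20 reads per time point. It is not background-subtracted; inactive controls average about 0.047.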
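Further: Bxb1 expression induced with 0.2% (w/v) L-rhamnose at OD600 near 0.5, cultures sampled hourly, flipped fraction per protease–substrate barcode pair counted by paired-end Illumina sequencing.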

| Variant | area with substrate ENLYAQS | area with substrate ENLYDQS | area with substrate ENLYEQS | area with substrate ENLYHQS | area with substrate ENLYIQS | area with substrate ENLYLQS | area with substrate ENLYMQS | area with substrate ENLYNQS | area with substrate ENLYPQS | area with substrate ENLYQQS | area with substrate ENLYRQS | area with substrate ENLYSQS | area with substrate ENLYVQS | area with substrate ENLYWQS | area with substrate ENLYYQS | area with substrate ENLYCQS | area with substrate ENLYGQS | area with substrate ENLYKQS | area with substrate ENLYTQS |
| --- | --- | --- | --- | --- | --- | --- | --- | --- | --- | --- | --- | --- | --- | --- | --- | --- | --- | --- | --- |
| MGESLFKGPRDYNPISSSICHLTNESDGHTTSLYGIGFGPFIITNKHLFRRNNGTLVVQSLHGVFKVKDTTTLQQHLVDGRDMIIIRMPKDFPPFPQKLKFREPQREERICLVTTNFQTKSMSSCVSDTSCTFPSGDGIFWKHWIQTKDGQCGSPLVSTRDGFIVGIHSASNFTNTNNYFTSVPKNFMELLTNQEAQQWVSGWRLNADSVLWGGHKVFMVKPEEPFQPVKEATQL [M125C] | 0.0731 | 0.0662 | 0.0643 | 0.0646 | 0.132 | 0.0629 | 0.097 | 0.0665 | 0.0669 | 0.0591 | 0.0652 | 0.0704 | 0.11 | 0.0674 | 0.0648 |  |  |  |  |
| MGESLFKGPRDYNPISSSICHLTNESDGHTTSLYGIGFGPFIITNKHLFRRNNGTLVVQSLHGVFKVKDTTTLQQHLVDGRDMIIIRMPKDFPPFPQKLKFREPQREERICLVTTNFQTKSMSSHVSDTSCTFPSGDGIFWKHWIQTKDGQCGSPLVSTRDGFIVGIHSASNFTNTNNYFTSVPKNFMELLTNQEAQQWVSGWRLNADSVLWGGHKVFMVKPEEPFQPVKEATQL [M125H] | 0.0479 | 0.0588 | 0.0487 | 0.0476 | 0.138 |  | 0.0744 | 0.0513 | 0.0634 | 0.058 | 0.0642 | 0.0824 | 0.0953 |  | 0.0624 | 0.0711 | 0.0595 | 0.0578 | 0.0913 |
| MGESLFKGPRDYNPISSSICHLTNESDGHTTSLYGIGFGPFIITNKHLFRRNNGTLVVQSLHGVFKVKDTTTLQQHLVDGRDMIIIRMPKDFPPFPQKLKFREPQREERICLVTTNFQTKSMSSPVSDTSCTFPSGDGIFWKHWIQTKDGQCGSPLVSTRDGFIVGIHSASNFTNTNNYFTSVPKNFMELLTNQEAQQWVSGWRLNADSVLWGGHKVFMVKPEEPFQPVKEATQL [M125P] | 0.06 |  | 0.077 | 0.0899 | 0.137 |  |  | 0.0665 | 0.0867 | 0.099 | 0.0558 | 0.0714 |  | 0.0795 |  |  | 0.0692 |  |  |
| MGESLFKGPRDYNPISSSICHLTNESDGHTTSLYGIGFGPFIITNKHLFRRNNGTLVVQSLHGVFKVKDTTTLQQHLVDGRDMIIIRMPKDFPPFPQKLKFREPQREERICLVTTNFQTKSMSSQVSDTSCTFPSGDGIFWKHWIQTKDGQCGSPLVSTRDGFIVGIHSASNFTNTNNYFTSVPKNFMELLTNQEAQQWVSGWRLNADSVLWGGHKVFMVKPEEPFQPVKEATQL [M125Q] | 0.0819 | 0.0598 | 0.0658 | 0.0686 |  | 0.0899 |  | 0.0751 | 0.0632 | 0.0607 | 0.0281 | 0.0765 | 0.101 | 0.0773 | 0.0718 | 0.0838 |  | 0.084 | 0.0714 |
| MGESLFKGPRDYNPISSSICHLTNESDGHTTSLYGIGFGPFIITNKHLFRRNNGTLVVQSLHGVFKVKDTTTLQQHLVDGRDMIIIRMPKDFPPFPQKLKFREPQREERICLVTTNFQTKSMSSMVQDTSCTFPSGDGIFWKHWIQTKDGQCGSPLVSTRDGFIVGIHSASNFTNTNNYFTSVPKNFMELLTNQEAQQWVSGWRLNADSVLWGGHKVFMVKPEEPFQPVKEATQL [S127Q] | 0.0818 | 0.0708 | 0.0551 | 0.075 | 0.132 |  | 0.086 | 0.0617 | 0.0785 | 0.0589 | 0.0624 |  |  |  |  |  | 0.0494 | 0.0628 | 0.0878 |
| MGESLFKGPRDYNPISSSICHLTNESDGHTTSLYGIGFGPFIITNKHLFRRNNGTLVVQSLHGVFKVKDTTTLQQHLVDGRDMIIIRMPKDFPPFPQKLKFREPQREERICLVTTNFQTKSMSSMVWDTSCTFPSGDGIFWKHWIQTKDGQCGSPLVSTRDGFIVGIHSASNFTNTNNYFTSVPKNFMELLTNQEAQQWVSGWRLNADSVLWGGHKVFMVKPEEPFQPVKEATQL [S127W] | 0.0948 | 0.0647 | 0.0576 | 0.0566 | 0.126 | 0.117 |  | 0.0718 |  |  | 0.0568 | 0.0708 |  | 0.0728 | 0.0722 |  |  | 0.0362 | 0.0828 |
| MGESLFKGPRDYNPISSSICHLTNESDGHTTSLYGIGFGPFIITNKHLFRRNNGTLVVQSLHGVFKVKDTTTLQQHLVDGRDMIIIRMPKDFPPFPQKLKFREPQREERICLVTTNFQTKSMSSMVSDTHCTFPSGDGIFWKHWIQTKDGQCGSPLVSTRDGFIVGIHSASNFTNTNNYFTSVPKNFMELLTNQEAQQWVSGWRLNADSVLWGGHKVFMVKPEEPFQPVKEATQL [S130H] | 0.0828 | 0.0556 | 0.0527 | 0.102 | 0.122 | 0.0966 | 0.0711 | 0.0695 | 0.105 |  | 0.0739 |  | 0.0666 | 0.0736 | 0.06 | 0.0815 | 0.0555 | 0.0808 | 0.0594 |
| MGESLFKGPRDYNPISSSICHLTNESDGHTTSLYGIGFGPFIITNKHLFRRNNGTLVVQSLHGVFKVKDTTTLQQHLVDGRDMIIIRMPKDFPPFPQKLKFREPQREERICLVTTNFQTKSMSSMVSDTKCTFPSGDGIFWKHWIQTKDGQCGSPLVSTRDGFIVGIHSASNFTNTNNYFTSVPKNFMELLTNQEAQQWVSGWRLNADSVLWGGHKVFMVKPEEPFQPVKEATQL [S130K] | 0.058 | 0.0644 | 0.0663 | 0.0664 | 0.133 |  | 0.0895 | 0.064 | 0.0881 | 0.064 | 0.0527 | 0.0698 | 0.117 | 0.0896 |  | 0.0485 | 0.0698 | 0.0526 | 0.0896 |
